# Assay results from the supplement of paper PMC8728848.
# The other results are listed elsewhere or left out.
# Tests used:
# Assay in all cases: glycan array binding signal (z-score within array); higher = stronger binding
# Details in all cases: glycan notation: IUPAC condensed, linker removed
# GalNAc(b1-4)GlcNAc = target: GalNAc(b1-4)GlcNAc
# Method in brief: (§1)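 The binding signal is a Z-score computed within each array. Data were drawn from 3228 arrays in the Consortium for Functional Glycomics database, restricted to those with a known protein sequence. Scores were averaged over arrays of the same protein sequence at different concentrations or buffers, and over linkers, and negative values can be taken as non-binding.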
# [1] = target: GalNAc(b1-4)GlcNAc(b1-2)Man
# Method in brief: as §1
# [2] = target: GalNAc(b1-4)GlcNAc(b1-2)Man(a1-3)[GalNAc(b1-4)GlcNAc(b1-2)Man(a1-6)]Man(b1-4)GlcNAc(b1-4)GlcNAc
# Method in brief: as §1
# [3] = target: GalNAc(b1-4)GlcNAc(b1-3)GalNAc(b1-4)GlcNAc
# Method in brief: as §1
# GalNAc(b1-4)GlcNAc6S = target: GalNAc(b1-4)GlcNAc6S
# Method in brief: as §1
# GalNAc(b1-6)GalNAc = target: GalNAc(b1-6)GalNAc
# Method in brief: as §1
# GalNAc3S(b1-4)GlcNAc = target: GalNAc3S(b1-4)GlcNAc
# Method in brief: as §1
# GalNAc3S(b1-4)GlcNAc3S = target: GalNAc3S(b1-4)GlcNAc3S
# Method in brief: as §1
# [4] = target: GalNAc3S(b1-4)[Fuc(a1-3)]GlcNAc
# Method in brief: as §1
# GalNAc4S6S(b1-4)GlcNAc = target: GalNAc4S6S(b1-4)GlcNAc
# Method in brief: as §1
# GalNAc6S(b1-4)GlcNAc = target: GalNAc6S(b1-4)GlcNAc
# Method in brief: as §1
# Glc(a1-4)Glc = target: Glc(a1-4)Glc
# Method in brief: as §1
# [5] = target: Glc(a1-4)Glc(a1-4)Glc(a1-4)Glc
# Method in brief: as §1
# Glc(a1-6)Glc(a1-6)Glc = target: Glc(a1-6)Glc(a1-6)Glc
# Method in brief: as §1
# [6] = target: Glc(a1-6)Glc(a1-6)Glc(a1-6)Glc
# Method in brief: as §1
# Glc(b1-4)Glc = target: Glc(b1-4)Glc
# Method in brief: as §1
# Glc(b1-6)Glc = target: Glc(b1-6)Glc
# Method in brief: as §1
# GlcA(b1-3)Gal = target: GlcA(b1-3)Gal
# Method in brief: as §1
# GlcA(b1-3)GlcNAc = target: GlcA(b1-3)GlcNAc
# Method in brief: as §1
# GlcA(b1-6)Gal = target: GlcA(b1-6)Gal
# Method in brief: as §1
# [7] = target: GlcA3S(b1-3)Gal(b1-4)GlcNAc(b1-2)Man
# Method in brief: as §1
# [8] = target: GlcA3S(b1-3)Gal(b1-4)GlcNAc(b1-3)Gal(b1-4)Glc
# Method in brief: as §1
# [9] = target: GlcNAc(a1-3)Gal(b1-4)GlcNAc
# Method in brief: as §1
# [10] = target: GlcNAc(a1-4)Gal(b1-3)GlcNAc
# Method in brief: as §1
# [11] = target: GlcNAc(a1-4)Gal(b1-4)GalNAc
# Method in brief: as §1
# [12] = target: GlcNAc(a1-4)Gal(b1-4)GlcNAc
# Method in brief: as §1
# [13] = target: GlcNAc(a1-4)Gal(b1-4)GlcNAc(b1-3)Gal(b1-4)Glc
# Method in brief: as §1
# [14] = target: GlcNAc(a1-4)Gal(b1-4)GlcNAc(b1-3)Gal(b1-4)GlcNAc
# Method in brief: as §1
# [15] = target: GlcNAc(a1-4)Gal(b1-4)GlcNAc(b1-3)Gal(b1-4)GlcNAc(b1-3)Gal(b1-4)GlcNAc
# Method in brief: as §1
# [16] = target: GlcNAc(a1-4)Gal(b1-4)GlcNAc(b1-3)Gal(b1-4)[Fuc(a1-3)]GlcNAc(b1-3)Gal(b1-4)[Fuc(a1-3)]GlcNAc
# Method in brief: as §1
# [17] = target: GlcNAc(a1-6)Gal(b1-4)GlcNAc
# Method in brief: as §1
# [18] = target: GlcNAc(b1-2)Gal(b1-3)GalNAc
# Method in brief: as §1
# [19] = target: GlcNAc(b1-2)Man(a1-3)[GlcNAc(b1-2)Man(a1-6)]Man(b1-4)GlcNAc(b1-4)GlcNAc
# Method in brief: as §1
# [20] = target: GlcNAc(b1-2)Man(a1-3)[GlcNAc(b1-2)Man(a1-6)]Man(b1-4)GlcNAc(b1-4)[Fuc(a1-6)]GlcNAc
# Method in brief: as §1
# [21] = target: GlcNAc(b1-2)Man(a1-3)[GlcNAc(b1-4)][GlcNAc(b1-2)Man(a1-6)]Man(b1-4)GlcNAc(b1-4)GlcNAc
# Method in brief: as §1
# [22] = target: GlcNAc(b1-2)Man(a1-3)[GlcNAc(b1-4)][GlcNAc(b1-2)Man(a1-6)]Man(b1-4)GlcNAc(b1-4)[Fuc(a1-6)]GlcNAc
# Method in brief: as §1
# [23] = target: GlcNAc(b1-2)[GlcNAc(b1-4)]Man(a1-3)[GlcNAc(b1-2)Man(a1-6)]Man(b1-4)GlcNAc(b1-4)GlcNAc
# Method in brief: as §1
binder,measurement,setting,value
"Epa3 (Candida glabrata), Q6VBI8_CANGB (protein) MGSSHHHHHHSSGLVPRGSHMNDLGFSLFEKRELSSQNPFGYPIGCSPQDVAIIPGLTMELYSYPIVSGTPPNCYDASYVDPEYPRTGYLKRKMVGKSTGVTGNLNYKYSVEKACMVKYGNLPAGYNYNEPLTVSNFTMILYGYFKAQTTGLHTFFVNADDLLYINFGAGNAFDCCKREDSKTKLGEYVAYDIWHVDSSKNKVSLFLEKDLYYPIRMFFNNIGKDSSLDLSFSVNGATDQISDFSGYLYSVPDQPDTCPAHIGYDTTCR",glycan array binding signal (z-score),GalNAc(b1-4)GlcNAc,0.034
same,glycan array binding signal (z-score),[1],-0.177
same,glycan array binding signal (z-score),[2],0.289
same,glycan array binding signal (z-score),[3],-0.292
same,glycan array binding signal (z-score),GalNAc(b1-4)GlcNAc6S,-0.392
same,glycan array binding signal (z-score),GalNAc(b1-6)GalNAc,-0.16
same,glycan array binding signal (z-score),GalNAc3S(b1-4)GlcNAc,-0.277
same,glycan array binding signal (z-score),GalNAc3S(b1-4)GlcNAc3S,-0.232
same,glycan array binding signal (z-score),[4],-0.415
same,glycan array binding signal (z-score),GalNAc4S6S(b1-4)GlcNAc,-0.292
same,glycan array binding signal (z-score),GalNAc6S(b1-4)GlcNAc,-0.265
same,glycan array binding signal (z-score),Glc(a1-4)Glc,-0.246
same,glycan array binding signal (z-score),[5],-0.306
same,glycan array binding signal (z-score),Glc(a1-6)Glc(a1-6)Glc,-0.123
same,glycan array binding signal (z-score),[6],-0.108
same,glycan array binding signal (z-score),Glc(b1-4)Glc,-0.201
same,glycan array binding signal (z-score),Glc(b1-6)Glc,-0.243
same,glycan array binding signal (z-score),GlcA(b1-3)Gal,-0.282
same,glycan array binding signal (z-score),GlcA(b1-3)GlcNAc,-0.164
same,glycan array binding signal (z-score),GlcA(b1-6)Gal,-0.112
same,glycan array binding signal (z-score),[7],0.055
same,glycan array binding signal (z-score),[8],-0.161
same,glycan array binding signal (z-score),[9],-0.2
same,glycan array binding signal (z-score),[10],-0.2
same,glycan array binding signal (z-score),[11],-0.006
same,glycan array binding signal (z-score),[12],-0.073
same,glycan array binding signal (z-score),[13],-0.086
same,glycan array binding signal (z-score),[14],-0.065
same,glycan array binding signal (z-score),[15],-0.143
same,glycan array binding signal (z-score),[16],0.413
same,glycan array binding signal (z-score),[17],0.189
same,glycan array binding signal (z-score),[18],-0.023
same,glycan array binding signal (z-score),[19],-0.197
same,glycan array binding signal (z-score),[20],-0.212
same,glycan array binding signal (z-score),[21],-0.298
same,glycan array binding signal (z-score),[22],-0.362
same,glycan array binding signal (z-score),[23],-0.237
